According to the supplement of paper PMC8728848:
The other results are listed elsewhere or left out.

Legend:
Experiment in all cases: glycan array binding signal (z-score within array); higher = stronger binding
Settings in all cases: glycan notation: IUPAC condensed, linker removed
[1] = target: GalNAc(a1-3)GalNAc(b1-3)Gal(a1-4)Gal(b1-4)GlcNAc
Procedure, shortened: (§1)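 Negative Z-scores can be read as non-binding. The Z-score is calculated within each array and then averaged across arrays of one protein sequence at different concentrations or buffers and across linkers. Arrays, 3228 in all, were curated from the Consortium for Functional Glycomics database and kept only where the protein sequence was available.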

GalNAc(b1-3)Gal = target: GalNAc(b1-3)Gal
Procedure, shortened: as §1

[2] = target: GalNAc(b1-3)Gal(a1-4)Gal(b1-4)GlcNAc
Procedure, shortened: as §1

[3] = target: GalNAc(b1-3)Gal(a1-4)Gal(b1-4)GlcNAc(b1-3)Gal(b1-4)Glc
Procedure, shortened: as §1

[4] = target: GalNAc(b1-3)Gal(a1-6)Gal(b1-4)Glc
Procedure, shortened: as §1

GalNAc(b1-3)GalNAc = target: GalNAc(b1-3)GalNAc
Procedure, shortened: as §1

GalNAc(b1-3)GlcNAc = target: GalNAc(b1-3)GlcNAc
Procedure, shortened: as §1

GalNAc(b1-4)Gal(b1-4)Glc = target: GalNAc(b1-4)Gal(b1-4)Glc
Procedure, shortened: as §1

GalNAc(b1-4)GlcNAc = target: GalNAc(b1-4)GlcNAc
Procedure, shortened: as §1

[5] = target: GalNAc(b1-4)GlcNAc(b1-2)Man
Procedure, shortened: as §1

[6] = target: GalNAc(b1-4)GlcNAc(b1-2)Man(a1-3)[GalNAc(b1-4)GlcNAc(b1-2)Man(a1-6)]Man(b1-4)GlcNAc(b1-4)GlcNAc
Procedure, shortened: as §1

[7] = target: GalNAc(b1-4)GlcNAc(b1-3)GalNAc(b1-4)GlcNAc
Procedure, shortened: as §1

GalNAc(b1-4)GlcNAc6S = target: GalNAc(b1-4)GlcNAc6S
Procedure, shortened: as §1

GalNAc(b1-6)GalNAc = target: GalNAc(b1-6)GalNAc
Procedure, shortened: as §1

GalNAc3S(b1-4)GlcNAc = target: GalNAc3S(b1-4)GlcNAc
Procedure, shortened: as §1

GalNAc3S(b1-4)GlcNAc3S = target: GalNAc3S(b1-4)GlcNAc3S
Procedure, shortened: as §1

[8] = target: GalNAc3S(b1-4)[Fuc(a1-3)]GlcNAc
Procedure, shortened: as §1

GalNAc4S6S(b1-4)GlcNAc = target: GalNAc4S6S(b1-4)GlcNAc
Procedure, shortened: as §1

GalNAc6S(b1-4)GlcNAc = target: GalNAc6S(b1-4)GlcNAc
Procedure, shortened: as §1

Glc(a1-4)Glc = target: Glc(a1-4)Glc
Procedure, shortened: as §1

[9] = target: Glc(a1-4)Glc(a1-4)Glc(a1-4)Glc
Procedure, shortened: as §1

Glc(a1-6)Glc(a1-6)Glc = target: Glc(a1-6)Glc(a1-6)Glc
Procedure, shortened: as §1

[10] = target: Glc(a1-6)Glc(a1-6)Glc(a1-6)Glc
Procedure, shortened: as §1

Glc(b1-4)Glc = target: Glc(b1-4)Glc
Procedure, shortened: as §1

Glc(b1-6)Glc = target: Glc(b1-6)Glc
Procedure, shortened: as §1

GlcA(b1-3)Gal = target: GlcA(b1-3)Gal
Procedure, shortened: as §1

GlcA(b1-3)GlcNAc = target: GlcA(b1-3)GlcNAc
Procedure, shortened: as §1

GlcA(b1-6)Gal = target: GlcA(b1-6)Gal
Procedure, shortened: as §1

[11] = target: GlcA3S(b1-3)Gal(b1-4)GlcNAc(b1-2)Man
Procedure, shortened: as §1

[12] = target: GlcA3S(b1-3)Gal(b1-4)GlcNAc(b1-3)Gal(b1-4)Glc
Procedure, shortened: as §1

[13] = target: GlcNAc(a1-3)Gal(b1-4)GlcNAc
Procedure, shortened: as §1

[14] = target: GlcNAc(a1-4)Gal(b1-3)GlcNAc
Procedure, shortened: as §1

[15] = target: GlcNAc(a1-4)Gal(b1-4)GalNAc
Procedure, shortened: as §1

[16] = target: GlcNAc(a1-4)Gal(b1-4)GlcNAc
Procedure, shortened: as §1

[17] = target: GlcNAc(a1-4)Gal(b1-4)GlcNAc(b1-3)Gal(b1-4)Glc
Procedure, shortened: as §1

[18] = target: GlcNAc(a1-4)Gal(b1-4)GlcNAc(b1-3)Gal(b1-4)GlcNAc
Procedure, shortened: as §1

[19] = target: GlcNAc(a1-4)Gal(b1-4)GlcNAc(b1-3)Gal(b1-4)GlcNAc(b1-3)Gal(b1-4)GlcNAc
Procedure, shortened: as §1

[20] = target: GlcNAc(a1-4)Gal(b1-4)GlcNAc(b1-3)Gal(b1-4)[Fuc(a1-3)]GlcNAc(b1-3)Gal(b1-4)[Fuc(a1-3)]GlcNAc
Procedure, shortened: as §1

B1: DrGal9 (Danio rerio) (protein)
chain: MAFYQQPPYYNPRIPFSGPIQGGLQDGKSIIISGRVLPGANRFHVNLQCGSHSEANVALHFNPRYEDTDYVVNNSYLNRTWGSEERKYESPFAQGQTFTLQILVAQDKYKISTNGRHFMDYKHRIPFTQVDTVAVEGMVEVNSVAFQNPAGFIPPQAGYAPQYAVPPGCGFPAFPSAPNYTIPHKTVMNGGLHPGKNIVINGVVNPNAKSIIFNLCYRSGIAFHYNPRFDENVVVRNTNQMEKWGAEERFGGLPFHKGQPFQVTISCNPQHYNVFVNGKQEHTYKHRYTKLNDIDILEICGDLQLTSVQA
- glycan array binding signal (z-score) [1]: -0.377
- glycan array binding signal (z-score) (GalNAc(b1-3)Gal): -0.193
- glycan array binding signal (z-score) [2]: -0.2
- glycan array binding signal (z-score) [3]: 0.311
- glycan array binding signal (z-score) [4]: -0.378
- glycan array binding signal (z-score) (GalNAc(b1-3)GalNAc): -0.385
- glycan array binding signal (z-score) (GalNAc(b1-3)GlcNAc): -0.023
- glycan array binding signal (z-score) (GalNAc(b1-4)Gal(b1-4)Glc): -0.4
- glycan array binding signal (z-score) (GalNAc(b1-4)GlcNAc): -0.147
- glycan array binding signal (z-score) [5]: 0.067
- glycan array binding signal (z-score) [6]: -0.361
- glycan array binding signal (z-score) [7]: 0.116
- glycan array binding signal (z-score) (GalNAc(b1-4)GlcNAc6S): -0.116
- glycan array binding signal (z-score) (GalNAc(b1-6)GalNAc): -0.414
- glycan array binding signal (z-score) (GalNAc3S(b1-4)GlcNAc): 0.261
- glycan array binding signal (z-score) (GalNAc3S(b1-4)GlcNAc3S): -0.34
- glycan array binding signal (z-score) [8]: -0.396
- glycan array binding signal (z-score) (GalNAc4S6S(b1-4)GlcNAc): -0.387
- glycan array binding signal (z-score) (GalNAc6S(b1-4)GlcNAc): -0.41
- glycan array binding signal (z-score) (Glc(a1-4)Glc): -0.354
- glycan array binding signal (z-score) [9]: -0.385
- glycan array binding signal (z-score) (Glc(a1-6)Glc(a1-6)Glc): -0.382
- glycan array binding signal (z-score) [10]: -0.402
- glycan array binding signal (z-score) (Glc(b1-4)Glc): -0.395
- glycan array binding signal (z-score) (Glc(b1-6)Glc): -0.405
- glycan array binding signal (z-score) (GlcA(b1-3)Gal): -0.375
- glycan array binding signal (z-score) (GlcA(b1-3)GlcNAc): 0.506
- glycan array binding signal (z-score) (GlcA(b1-6)Gal): -0.412
- glycan array binding signal (z-score) [11]: -0.111
- glycan array binding signal (z-score) [12]: 0.201
- glycan array binding signal (z-score) [13]: -0.37
- glycan array binding signal (z-score) [14]: -0.402
- glycan array binding signal (z-score) [15]: -0.409
- glycan array binding signal (z-score) [16]: -0.398
- glycan array binding signal (z-score) [17]: -0.148
- glycan array binding signal (z-score) [18]: -0.212
- glycan array binding signal (z-score) [19]: -0.11
- glycan array binding signal (z-score) [20]: -0.37
